{"source": "the supplement of paper PMC3334620", "note": "Over roughly 33,000 sequences, “E-score (-0.5 to 0.5)” has its median near -0.016; the highest 2% begin near 0.31. The list shows a part of the results."}
{"biological_target": "Cst6 (UniProt P40535)", "test": "PBM E-score (8-mer binding enrichment) (E-score (-0.5 to 0.5)); higher = stronger / more preferred TF binding; most listed sequences are background and not binding sites", "settings": "protein concentration: 200 nM; construct: GST-DNA-binding domain", "method_in_brief": "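Using PURExpress in vitro transcription/translation, GST-tagged yeast transcription factors were made in full-length or DNA-binding-domain form. These were applied at about 100-200 nM to double-stranded universal all-10-mer Agilent arrays, and bound protein was detected with fluorescent anti-GST. Scans were normalised with masliner before the Universal PBM Analysis Suite assigned E-scores to ungapped eight-base words pooled with their reverse complements.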"}
{"sequence": "AGGTCATA", "PBM E-score": 0.168}
{"sequence": "GGACTAAC", "PBM E-score": -0.139}
{"sequence": "CAGTCGAG", "PBM E-score": -0.173}
{"sequence": "ACATAAAT", "PBM E-score": 0.264}
{"sequence": "CCGAGCTC", "PBM E-score": -0.189}
{"sequence": "AGCAACAT", "PBM E-score": 0.0565}
{"sequence": "CCAGTGCA", "PBM E-score": -0.185}
{"sequence": "AGAAGATC", "PBM E-score": -0.0477}
{"sequence": "CCCCGGGA", "PBM E-score": -0.266}
{"sequence": "ACTACCCA", "PBM E-score": -0.231}
{"sequence": "CCTGCGGC", "PBM E-score": -0.138}
{"sequence": "AAACCACC", "PBM E-score": -0.0642}
{"sequence": "CAGGCCGG", "PBM E-score": -0.3}
{"sequence": "ACGAAATA", "PBM E-score": 0.129}
{"sequence": "GCCGTACC", "PBM E-score": 0.213}
{"sequence": "TAGATACA", "PBM E-score": 0.102}
{"sequence": "AAGGCGTC", "PBM E-score": 0.201}
{"sequence": "AACCACAG", "PBM E-score": -0.105}
{"sequence": "GTCGAGGA", "PBM E-score": -0.131}
{"sequence": "ACCATGCC", "PBM E-score": 0.0145}
{"sequence": "GAAATATA", "PBM E-score": 0.254}
{"sequence": "CAAGAGAG", "PBM E-score": -0.0559}
{"sequence": "CGCCTGTC", "PBM E-score": -0.21}
{"sequence": "CAGTCAGG", "PBM E-score": -0.173}
{"sequence": "ATCGTCAG", "PBM E-score": 0.131}
{"sequence": "CTACTGCA", "PBM E-score": -0.101}
{"sequence": "ATCACTGA", "PBM E-score": 0.185}
{"sequence": "ATTGTGAG", "PBM E-score": 0.0813}
{"sequence": "AATAGACG", "PBM E-score": 0.18}
{"sequence": "CCTCGCAG", "PBM E-score": -0.231}
{"sequence": "ACGCCAAT", "PBM E-score": 0.223}
{"sequence": "CCCTCATC", "PBM E-score": -0.302}
{"sequence": "CATGCGAA", "PBM E-score": 0.111}
{"sequence": "CTGTAAAG", "PBM E-score": -0.137}
{"sequence": "CAGTCCGA", "PBM E-score": -0.133}
{"sequence": "CCGTGGAG", "PBM E-score": -0.229}
{"sequence": "CCTGCCCA", "PBM E-score": -0.254}
{"sequence": "CTCACTAA", "PBM E-score": 0.204}
{"sequence": "CTAATATC", "PBM E-score": 0.0804}
{"sequence": "GCCAGATA", "PBM E-score": -0.0414}
{"sequence": "ACCATCAA", "PBM E-score": 0.0154}
{"sequence": "CCGTCAGC", "PBM E-score": 0.0302}
{"sequence": "CCTATAGC", "PBM E-score": -0.145}
{"sequence": "ACGTCATA", "PBM E-score": 0.494}
{"sequence": "AACTGCCA", "PBM E-score": -0.155}
{"sequence": "AGCGCATA", "PBM E-score": -0.0255}
{"sequence": "CGCTCAGA", "PBM E-score": -0.08}
{"sequence": "CCTTCGGA", "PBM E-score": -0.101}
{"sequence": "AGCATACG", "PBM E-score": -0.0565}
{"sequence": "ATCCCACG", "PBM E-score": -0.0387}
{"sequence": "CTTAGGTC", "PBM E-score": -0.0809}
{"sequence": "CGCAAGAA", "PBM E-score": 0.116}
{"sequence": "CCGAGACG", "PBM E-score": -0.118}
{"sequence": "AACTGCCG", "PBM E-score": 0.114}
{"sequence": "GCAAGAAA", "PBM E-score": 0.147}
{"sequence": "ATCGTATC", "PBM E-score": -0.0316}
{"sequence": "AATACCGG", "PBM E-score": -0.0505}
{"sequence": "AGTCCTTG", "PBM E-score": -0.195}
{"sequence": "GATGGCAA", "PBM E-score": 0.0532}
{"sequence": "GGACGGAC", "PBM E-score": -0.203}
{"sequence": "TAAAGCTA", "PBM E-score": 0.0383}
{"sequence": "CGCCGCTA", "PBM E-score": -0.0394}
{"sequence": "AGTGCCCA", "PBM E-score": -0.148}
{"sequence": "AACGGTCA", "PBM E-score": 0.0769}
{"sequence": "GCAGGGCC", "PBM E-score": -0.233}
{"sequence": "CGACTTTC", "PBM E-score": 0.022}
{"sequence": "GCACAGTA", "PBM E-score": 0.171}
{"sequence": "CATGGGAC", "PBM E-score": -0.159}
{"sequence": "GGGAAACC", "PBM E-score": -0.0148}
{"sequence": "AAATCCGG", "PBM E-score": -0.0279}
{"sequence": "GAACCGAA", "PBM E-score": 0.17}
{"sequence": "AAGTTGAC", "PBM E-score": 0.145}
{"sequence": "CATCACCC", "PBM E-score": 0.308}
{"sequence": "GGAGCAAC", "PBM E-score": -0.187}
{"sequence": "ACAGCGCT", "PBM E-score": -0.00804}
{"sequence": "CAAAAGCA", "PBM E-score": -0.0642}
{"sequence": "GTGAAAAC", "PBM E-score": 0.0482}
{"sequence": "AGCGAAGC", "PBM E-score": -0.145}
{"sequence": "CAGGAAAC", "PBM E-score": -0.0745}
{"sequence": "AACTTACG", "PBM E-score": 0.301}
{"sequence": "TTAATCAA", "PBM E-score": 0.146}
{"sequence": "GTACTATA", "PBM E-score": 0.0192}
{"sequence": "CCGAGACC", "PBM E-score": -0.145}
{"sequence": "GGGAATAC", "PBM E-score": 0.031}
{"sequence": "GGATGCCA", "PBM E-score": -0.201}
{"sequence": "GGTCAGTA", "PBM E-score": -0.128}
{"sequence": "ACAGTCTA", "PBM E-score": -0.119}
{"sequence": "CCACTTGA", "PBM E-score": 0.0541}
{"sequence": "TAGCACTA", "PBM E-score": -0.115}
{"sequence": "GCTATTAC", "PBM E-score": 0.244}
{"sequence": "CTAAACAA", "PBM E-score": 0.0809}
{"sequence": "ATCCCCCG", "PBM E-score": -0.244}
{"sequence": "ACCAACCT", "PBM E-score": -0.062}
{"sequence": "CGAGGGGA", "PBM E-score": -0.0983}
{"sequence": "CGTTAATC", "PBM E-score": 0.162}
{"sequence": "AGGTAAAT", "PBM E-score": 0.0678}
{"sequence": "CGGGGCTC", "PBM E-score": -0.307}
{"sequence": "GGTGATAA", "PBM E-score": 0.0659}
{"sequence": "GGACTGAA", "PBM E-score": -0.075}
{"sequence": "CCAGTGTC", "PBM E-score": -0.108}
{"sequence": "AGCGGTTC", "PBM E-score": -0.092}
{"sequence": "ACACCTAA", "PBM E-score": -0.00262}
{"sequence": "ACGGAATG", "PBM E-score": 0.0531}
{"sequence": "CAGAAACA", "PBM E-score": 0.215}
{"sequence": "GCAAACTA", "PBM E-score": 0.0687}
{"sequence": "AATCCGAT", "PBM E-score": 0.119}
{"sequence": "ATCTCTGA", "PBM E-score": 0.0114}
{"sequence": "CCTAACCG", "PBM E-score": -0.172}
{"sequence": "CAAAACGG", "PBM E-score": 0.131}
{"sequence": "GCTCTTCC", "PBM E-score": -0.101}
{"sequence": "AAACCGAC", "PBM E-score": 0.00998}
{"sequence": "ACTTGAAG", "PBM E-score": 0.124}
{"sequence": "ATTCATCG", "PBM E-score": 0.0577}
{"sequence": "CGTGCCGC", "PBM E-score": 0.171}
{"sequence": "ACACTGAG", "PBM E-score": 0.0124}
{"sequence": "TCATAAAA", "PBM E-score": 0.265}
{"sequence": "CCGCGGGC", "PBM E-score": 0.0112}
{"sequence": "CTAAATGA", "PBM E-score": 0.176}
{"sequence": "AAGCCCTC", "PBM E-score": -0.258}
{"sequence": "AAAGTGGT", "PBM E-score": 0.00383}
{"sequence": "ACACATAC", "PBM E-score": -0.0886}
{"sequence": "ATCAAGCC", "PBM E-score": 0.0709}
{"sequence": "CTTCATCC", "PBM E-score": -0.151}
{"sequence": "AGAATCAT", "PBM E-score": 0.122}
{"sequence": "CTCGAGCA", "PBM E-score": 0.0309}
{"sequence": "CGGCCTTA", "PBM E-score": 0.0171}
{"sequence": "ACAAGTGC", "PBM E-score": -0.0973}
{"sequence": "AGCGATGC", "PBM E-score": -0.21}
{"sequence": "GCGTGGCC", "PBM E-score": -0.226}
{"sequence": "ATTGGTAA", "PBM E-score": 0.0247}
{"sequence": "ACAGATGA", "PBM E-score": 0.199}
{"sequence": "AACACCCT", "PBM E-score": -0.205}
{"sequence": "ACGGGGAA", "PBM E-score": -0.0312}
{"sequence": "AAACCAGA", "PBM E-score": 0.152}
{"sequence": "GGTTCGAA", "PBM E-score": 0.135}
{"sequence": "CAGTGAGG", "PBM E-score": -0.106}
{"sequence": "CCTCTCAA", "PBM E-score": -0.193}
{"sequence": "CCCCGCAA", "PBM E-score": -0.00488}
{"sequence": "CCACCTTC", "PBM E-score": -0.313}
{"sequence": "GAACCCTA", "PBM E-score": 0.00298}
{"sequence": "AGAGTTTC", "PBM E-score": -0.127}
{"sequence": "CAGGAGTA", "PBM E-score": 0.00357}
{"sequence": "CGGATTTC", "PBM E-score": -0.077}
{"sequence": "TCAGGGGA", "PBM E-score": -0.149}
{"sequence": "AAATCTCG", "PBM E-score": 0.0859}
{"sequence": "AGTCCCAT", "PBM E-score": -0.201}
{"sequence": "TCTGTCCA", "PBM E-score": -0.0796}
{"sequence": "ACGGACGT", "PBM E-score": 0.0857}
{"sequence": "CAATTGCA", "PBM E-score": 0.068}
{"sequence": "GATGAGCA", "PBM E-score": 0.221}
{"sequence": "AATAGAAA", "PBM E-score": 0.188}
{"sequence": "CACAAAGC", "PBM E-score": 0.0263}
{"sequence": "GTCCGCAC", "PBM E-score": 0.107}
{"sequence": "ATGTGCGC", "PBM E-score": 0.0865}
{"sequence": "CAGTGGAG", "PBM E-score": 0.0339}
{"sequence": "CGGCTTCA", "PBM E-score": 0.17}
{"sequence": "AGGCGTAG", "PBM E-score": -0.168}
{"sequence": "CGCTCGGC", "PBM E-score": -0.0281}
{"sequence": "CCCGACCA", "PBM E-score": -0.14}
{"sequence": "ACAAGCAG", "PBM E-score": -0.195}
{"sequence": "CACTTGCG", "PBM E-score": -0.00981}
{"sequence": "ACATATCC", "PBM E-score": 0.0929}
{"sequence": "GAGCCTCC", "PBM E-score": -0.278}
{"sequence": "TAGATGCA", "PBM E-score": -0.0484}
{"sequence": "ACTGTTCC", "PBM E-score": -0.109}
{"sequence": "AAGTCCCG", "PBM E-score": -0.322}
{"sequence": "AAATTGTC", "PBM E-score": 0.189}
{"sequence": "ACGAGAAA", "PBM E-score": 0.134}
{"sequence": "AGCTTTGC", "PBM E-score": -0.207}
{"sequence": "AAGTTAAT", "PBM E-score": 0.213}
{"sequence": "ACGTTACA", "PBM E-score": 0.241}
{"sequence": "AACAGCGG", "PBM E-score": 0.00438}
